Laboratory results published in PMC4336329 (PLoS ONE, 2015).
About 2,200 (0.71%) of roughly 310,000 compounds showed an effect of 50% or more. Effects have a minus sign here. Some of the results follow.

Each compound was assayed against human ether-à-go-go-related gene (hERG) potassium channel (human, UniProt Q12809) (assay: primary screen, population patch clamp on CHO cells stably expressing hERG).
Sequence of human ether-à-go-go-related gene (hERG) potassium channel (Q12809 whole entry, looked up): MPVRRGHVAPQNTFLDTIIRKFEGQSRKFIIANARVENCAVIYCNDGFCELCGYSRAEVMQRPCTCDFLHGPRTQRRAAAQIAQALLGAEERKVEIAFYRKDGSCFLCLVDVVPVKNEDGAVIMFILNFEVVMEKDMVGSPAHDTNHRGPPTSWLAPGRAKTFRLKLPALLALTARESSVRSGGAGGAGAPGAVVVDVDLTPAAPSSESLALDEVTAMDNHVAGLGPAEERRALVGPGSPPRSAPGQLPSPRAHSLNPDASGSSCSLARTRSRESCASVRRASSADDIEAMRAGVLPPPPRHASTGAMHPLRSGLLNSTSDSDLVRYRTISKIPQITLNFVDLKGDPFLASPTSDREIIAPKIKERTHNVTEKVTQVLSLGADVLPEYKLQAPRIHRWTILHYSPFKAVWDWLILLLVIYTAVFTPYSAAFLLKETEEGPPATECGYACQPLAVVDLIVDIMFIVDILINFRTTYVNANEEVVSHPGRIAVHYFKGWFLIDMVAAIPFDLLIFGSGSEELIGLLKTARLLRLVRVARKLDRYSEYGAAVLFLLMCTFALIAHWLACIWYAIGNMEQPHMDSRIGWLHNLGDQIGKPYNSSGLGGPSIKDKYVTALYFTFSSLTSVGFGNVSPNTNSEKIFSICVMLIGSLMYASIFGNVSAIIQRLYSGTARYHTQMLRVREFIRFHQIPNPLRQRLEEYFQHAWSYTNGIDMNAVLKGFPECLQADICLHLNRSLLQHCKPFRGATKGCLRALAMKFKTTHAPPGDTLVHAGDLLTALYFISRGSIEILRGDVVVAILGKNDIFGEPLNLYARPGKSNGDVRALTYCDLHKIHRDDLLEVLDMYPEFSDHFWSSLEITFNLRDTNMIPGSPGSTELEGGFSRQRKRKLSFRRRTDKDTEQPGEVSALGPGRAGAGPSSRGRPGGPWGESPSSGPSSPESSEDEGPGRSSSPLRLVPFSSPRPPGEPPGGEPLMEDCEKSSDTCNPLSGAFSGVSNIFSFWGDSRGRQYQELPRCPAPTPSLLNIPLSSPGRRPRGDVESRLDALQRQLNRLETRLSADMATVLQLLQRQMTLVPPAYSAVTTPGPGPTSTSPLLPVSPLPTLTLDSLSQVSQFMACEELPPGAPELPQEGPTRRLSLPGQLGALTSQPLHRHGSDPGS

Structure (SMILES) | hERG current change (%, negative = inhibition) at 1uM
N#CCCCCN1c2cccc3cccc(c23)S1(=O)=O | 11.5%
Cn1c(=O)c(=O)n(C)c2cc(S(=O)(=O)N3CCCC3C(=O)NCc3cccs3)ccc21 (centres unmarked) | 12.6%
Cc1cccc2c3c([nH]c12)CCN(C)C3 | 4.68%
Clc1cccc(Cl)c1CO/N=C/c1c(-c2ccccc2)nc2n1CCS2 | 7.73%
COc1cc(OC)c(/C=N/NC(=O)c2ccncc2)c(OC)c1 | 13.6%
C#Cc1ccc([C@H]2C=C(C(=O)OCC=C)O[C@@H](OCC)[C@@H]2CCCO)cc1 | 13%
CC(C)c1nnc(NC(=O)CCC(=O)NC2CCCCCC2)s1 | 9.93%
Cc1ccc(C(=O)NNc2ncnc3c2cnn3C)cc1 | 15.1%
CCc1[nH]nc2c1C1(C(=O)N(Cc3ccccc3)c3ccccc31)C(C#N)=C(N)O2 (centres unmarked) | 15.5%
COc1ccc(-c2csc(Nc3ccc(C)cn3)n2)cc1 | 6.34%
Nc1cc(=O)[nH]c(SCC(=O)N2CCCc3ccccc32)n1 | 7.38%
CCc1ccc(/C([O-])=C(/C(=S)NCCN2CCOCC2)[n+]2ccccc2)cc1 | 6.2%
COc1ccccc1C(=O)NNC(=O)C(=O)N1CCCCC1 | 12.4%
Fc1cnc(N/N=C/c2ccc(-c3ccc(Br)cc3)o2)nc1N1CCOCC1 | 16.7%
CC(C)Oc1cccc(C(=O)N/N=C/c2coc3ccccc3c2=O)c1 | 9.98%
CCOC(=O)N1CCN(C(=O)C2CCN(Cc3cccc(OCc4ccccc4)c3)CC2)CC1.O=C(O)C(=O)O | 4.61%
COC(=O)C(C(=O)OC)C(C[N+](=O)[O-])c1ccc(OC)c(OC)c1 (centres unmarked) | -8.09%
CCOc1ccc2nc(COC(=O)c3cccc([N+](=O)[O-])c3)c(C(C)=O)[n+]([O-])c2c1 | 15.3%
C/C(=N/NC(N)=S)c1cc2ccc(O)cc2oc1=O | 6.01%
COc1ccc(NCc2cc(=O)oc3cc(NC(C)=O)ccc23)cc1 | 9.67%
COc1ccc(C)cc1S(=O)(=O)Nc1cccc(C)c1 | 6.42%
Cc1ccc(Oc2ncnc(N)c2[N+](=O)[O-])cc1 | 9.92%

Structure (SMILES) | hERG current change (%, negative = inhibition) at 1uM
COC(=O)c1cc(C(=O)OCC(=O)NC(=O)NCc2ccccc2)cc([N+](=O)[O-])c1 | 11.1%
O=C(NCCN1CCN(Cc2ccccc2)CC1)C1c2ccccc2C(=O)N2CCc3ccccc3C12 (centres unmarked) | 9.42%
COC(=O)c1cc(NC(=O)c2cc(-c3ccccc3Cl)oc2C(F)(F)F)ccc1N1CCOCC1 | 13.7%
Cc1cccc(C)c1OCC(=O)N/N=C/c1ccc2c(c1)OCO2 | 7.97%
CCOC(=O)c1cnc(SC)nc1N1CCCC1 | 8.81%
CCC(=O)N1CCc2cc(S(=O)(=O)NCCC(=O)N3CCN(c4ccccc4)CC3)ccc21 | 18.7%
C=C(C)c1cccc(C(C)(C)NC(=O)N2CCN(c3ccccc3)CC2)c1 | 11.6%
COc1ccc(OCC(=O)Nc2ccc(NC(=O)c3ccco3)cc2)cc1 | 6.97%
CCN(CC)c1ccc(CNCc2cccs2)cc1.Cl | 8.89%
CCc1nc(SCC(=O)N2CCOCC2)c2c(=O)n(C)c(=O)n(C)c2n1 | -1.43%
O=c1[nH]c(SCc2cccc(Cl)c2)nc2ccccc12 | 3.9%
CCOc1ccc(S(=O)(=O)/N=C(\N)c2ccccc2)cc1 | 7.8%
CCc1nnc(NS(=O)(=O)c2ccc(NCc3cc(Br)ccc3O)cc2)s1 | 5.5%
O=C(c1ccc(Cl)cc1)C1CCCN(Cc2cnn(-c3ccccc3)c2)C1 (centres unmarked) | -23.9%
COCCCN(C(=O)CSCc1ccc(C)cc1)c1c(N)n(Cc2ccccc2)c(=O)[nH]c1=O | 8.74%
Nc1cc(N)nc(SCC(=O)N2CCN(C(=O)c3ccco3)CC2)n1 | 0.379%
O=C(CCC(=O)N1CCOc2ccccc21)NCCCN1CCN(Cc2ccccc2)CC1 | -41.9%
Cc1nc(C(=O)NNC(=O)c2cccc(Cl)c2)c(C(F)(F)F)o1 | 12.6%
O=[N+]([O-])c1ccc(F)cc1Oc1nc(-c2cccnc2)nc2ccccc12 | 10.7%
OC(CN1CCC(Cc2ccccc2)CC1)C(F)(F)F (centres unmarked) | 6.98%
O=C1O[C@H]([C@@H](O)CO)C(O)=C1O | 12.2%
Cc1ccc(C)c(NS(=O)(=O)c2cc(C(=O)Nc3ccccc3-c3ccccc3)ccc2Cl)c1 | 7.69%
